Experimental data taken from PubChem BioAssay (NCI).
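Compound exposure: 48 hours, 5 concentrations, 96-well plates. The concentration for 50% growth inhibition is given as GI50. Definition used: TGI = concentration required for complete inhibition of growth.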

These compounds were tested on NCI-H322M lung (assay: inhibition of tumour cell growth, NCI panel, 48 h).
For `C#C[C@]1(O)CC[C@H]2[C@@H]3CC=C4c5sc(Nc6cc(Cl)ccn6)nc5CC[C@]4(C)[C@H]3CC[C@@]21C`, the GI50 was 2.59 µM and the TGI was greater than 20.1 µM.
Compound `O=C(CN1CCOCC1)NNc1ncnc2ccccc12` has a GI50 of 16.5 µM and a TGI of 30.3 µM.
In the case of `O=C(Nc1cccc(C(F)(F)F)c1)c1cc(-c2ccc(F)cc2F)ccc1O`, the GI50 is reported as 2.76 µM and the TGI is reported as 9.53 µM.
